The values below come from the RNAGym collection of RNA variant scans (doi:10.1101/gad.245936.114).

To fix the notation:
B1: tRNA (parent)
chain: CUCUCGGUAGCCAAGUUGGUUUAAGGCGCAAGACUUUAAUUUAUCACUACGAAAUCUUGAGAUCGGGCGUUCGACUCGCCCCCGGGAGAUUUUUUCCUCGAGCAA

Variants at the background level are over-represented here. Bounds are passed on as bounds.

Variants of B1 are the subject of the series. Briefly: nonsense suppression (GFP-seq) (ratio to wild type); higher = more function; SUP4oc tRNA, yeast GFP reporter sort-seq. The method, boiled down:
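Yeast carrying genome-integrated SUP4oc tRNA variants from a library with ~3% random mutations were grown in raffinose/galactose medium with 80 mg/L adenine. Each strain also carried a galactose-driven GFP ochre reporter and RFP. Cells were sorted into GFP/RFP bins, and each bin was Illumina-sequenced (phred ≥30). Nonsense suppression (GFPSEQ) is the bin median GFP/RFP, weighted by each variant's estimated cell share per bin, relative to wild-type SUP4oc; variants needed ≥100 reads and ≥30 cells.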
With A9C G73U, the nonsense suppression was not above 0.026.

Turning to G6U C29A U63C, the nonsense suppression is not above 0.026.

On to A14U U20G A23G U58G G65C U70C G73A C82G, for which the nonsense suppression is not above 0.026.

On to A9G A60C, for which the nonsense suppression was not above 0.026.

As for G7U U17G, the nonsense suppression is not above 0.026.

On to G25U G61U A62G, for which the nonsense suppression was not above 0.026.

On to A60C G88U, for which the nonsense suppression was not above 0.026.

U22G C75A A87C: the nonsense suppression is not above 0.026.

As to A9C A87C, the nonsense suppression is not above 0.026.

Turning to C3G A14G U55G C80U, the nonsense suppression is not above 0.026.

U17C C34G U70C: the nonsense suppression is not above 0.026.

Consider U22G G32U C72G, for which the nonsense suppression is not above 0.026.

In the case of C27G G69A, the nonsense suppression is not above 0.026.

For the variant C3U U57A G73A, the nonsense suppression was not above 0.026.

On to A23U G28U U55C, for which the nonsense suppression was not above 0.026.

In the case of C11U A24U, the nonsense suppression was found to be 0.031.

On to G6C C29G A87G, for which the nonsense suppression was not above 0.026.

Turning to C27A A31G G78C, the nonsense suppression was not above 0.026.

Take U16A U76C: the nonsense suppression stood at 1.19.

For C27G G86U, the nonsense suppression was not above 0.026.

As to C11A C27U, the nonsense suppression is not above 0.026.

With C5A A24G A33G, the nonsense suppression is not above 0.026.

Turning to U21G A87G, the nonsense suppression was 0.172.

With A33G C64A, the nonsense suppression was not above 0.026.

With G25A C56A, the nonsense suppression was not above 0.026.

Consider C5U C77G, for which the nonsense suppression was not above 0.026.

Consider U17G C34U, for which the nonsense suppression was not above 0.026.

Consider A54U C72A, for which the nonsense suppression was not above 0.026.

With G15A U17C G84A G85U, the nonsense suppression is not above 0.026.

Turning to C3U U8C G61A A62C, the nonsense suppression was not above 0.026.

As to A60C A62C U63A, the nonsense suppression was not above 0.026.

As to G59C U76G, the nonsense suppression was not above 0.026.

G65C C68A C82G: the nonsense suppression is not above 0.026.

Consider G19C U55A A60U G69A C80A, for which the nonsense suppression was not above 0.026.

On to G7C A13G C27U G61C, for which the nonsense suppression was not above 0.026.

In the case of G25A C56G G78U, the nonsense suppression was not above 0.026.

Take A24C C80G: the nonsense suppression is not above 0.026.

On to A14U G65C C68A G69U, for which the nonsense suppression was not above 0.026.

On to G7A A24C U55G G69U A87G, for which the nonsense suppression was not above 0.026.

Take C5U A54G A60U A74G: the nonsense suppression was not above 0.026.

Consider G19U C75U, for which the nonsense suppression is not above 0.026.

As to U21C C27A C29U G65C G78A, the nonsense suppression was not above 0.026.

In the case of G28A C81U, the nonsense suppression was 1.2.

As for A24C A62C U76G, the nonsense suppression is not above 0.026.

As for G61A C83A, the nonsense suppression was determined as 0.0363.

For U16C G61U G73A, the nonsense suppression stood at 0.438.

As for C12G U16G A33U C34G, the nonsense suppression was not above 0.026.

Turning to C1G A9C G19A, the nonsense suppression was not above 0.026.

Take G88U A89U: the nonsense suppression was not above 0.026.

For C3U G15C U63G C75A, the nonsense suppression is not above 0.026.

Turning to A9U A13G A54U C83U, the nonsense suppression was not above 0.026.

For U63G G85A, the nonsense suppression came to 0.787.

For the variant G19U C68U, the nonsense suppression is not above 0.026.

For C5G G6A A13U C56A U57A G61U, the nonsense suppression was not above 0.026.

In the case of A60C C68A G88C, the nonsense suppression is not above 0.026.

Turning to U8G G19U G28U, the nonsense suppression is not above 0.026.

Consider G10U C75U A89U, for which the nonsense suppression was not above 0.026.

As to C5G C34U A74U C77A, the nonsense suppression is not above 0.026.

Turning to C11U A74U, the nonsense suppression is not above 0.026.

In the case of C3G U35A G69A U76A C83G, the nonsense suppression was not above 0.026.

G67C U76G: the nonsense suppression was not above 0.026.

With G6U G10C U21A A30C G66A, the nonsense suppression was not above 0.026.

On to G26C A62U U71C, for which the nonsense suppression is not above 0.026.

Turning to G69A U76G G84U, the nonsense suppression is not above 0.026.

As to C56A U57A G65A G67C C81G, the nonsense suppression was not above 0.026.

With G15A A33C C80A G88C A89C, the nonsense suppression is not above 0.026.

Turning to A14U C34A G88A, the nonsense suppression was not above 0.026.

As to G18U U58C G61U G65U G78A, the nonsense suppression was not above 0.026.

With C5U A13C A87G, the nonsense suppression is not above 0.026.

As for C1A C5G A14U G19U G61A U70C, the nonsense suppression was not above 0.026.

On to U16A C68G C81G, for which the nonsense suppression is not above 0.026.

Consider C34G C80A G88A, for which the nonsense suppression is not above 0.026.

Take A23G G26C G67A: the nonsense suppression was not above 0.026.

On to G26A U71G, for which the nonsense suppression is not above 0.026.

Consider C3G C11A G18U A31G, for which the nonsense suppression was not above 0.026.

As for U58A G66U G86U, the nonsense suppression is not above 0.026.

Consider C3A U8A A9U C81U, for which the nonsense suppression is not above 0.026.

As to C1A A31U A33C, the nonsense suppression is not above 0.026.

Regarding A13G U17C A33G G73U C81U, the nonsense suppression is not above 0.026.

In the case of G15U A33G U71G, the nonsense suppression was not above 0.026.

For G59A G84A G85C, the nonsense suppression is not above 0.026.

For the variant U17G G85C, the nonsense suppression is not above 0.026.

Regarding C5U G59C U63A C80A, the nonsense suppression is not above 0.026.

Consider G88C, for which the nonsense suppression was determined as 0.028.

Take A13G U22C U55C G85C: the nonsense suppression was not above 0.026.

For C11A A24U G26C G61U G67C, the nonsense suppression was not above 0.026.

Regarding U4G G7U C56A, the nonsense suppression was not above 0.026.

U16C A74C G78U G85C: the nonsense suppression was not above 0.026.

Regarding A24G G85A, the nonsense suppression came to 0.189.

With C11U A62U U63C, the nonsense suppression was not above 0.026.

With A24U C29G U35C A62U, the nonsense suppression is not above 0.026.

Regarding C12G A14U A89G, the nonsense suppression is not above 0.026.

On to C12G A14C A31G C75G, for which the nonsense suppression is not above 0.026.

Regarding U22C U76C, the nonsense suppression came to 1.02.

C3U U63A C81G: the nonsense suppression was not above 0.026.

Consider G65U C80G, for which the nonsense suppression is not above 0.026.

As for C29G C64A C72U G88C, the nonsense suppression was not above 0.026.

For C29G A60G C72U U76C, the nonsense suppression is not above 0.026.

In the case of C34A G67A G85C A87U, the nonsense suppression is not above 0.026.

U16A G69C: the nonsense suppression is not above 0.026.

As for A31C C80A, the nonsense suppression was not above 0.026.

Take C1G G25A G65A C83G: the nonsense suppression is not above 0.026.

In the case of U55C U58A G67U, the nonsense suppression was not above 0.026.

G26C G66C: the nonsense suppression is not above 0.026.

With U2A C12G C34G, the nonsense suppression is not above 0.026.

On to G10U A14G G73C, for which the nonsense suppression is not above 0.026.

Take C1U U4C C77G C80U G85A: the nonsense suppression is not above 0.026.

As for G67U C83G, the nonsense suppression was not above 0.026.

As for A9G C11A A30G G85A G86U, the nonsense suppression was not above 0.026.

On to A54G C77U C79U G88U, for which the nonsense suppression was not above 0.026.

In the case of A23C C29U G73C, the nonsense suppression is not above 0.026.

Take U20G G66A: the nonsense suppression was not above 0.026.

As for U16A C34G U63C C77G G86C, the nonsense suppression is not above 0.026.

For G67U C68A U70A, the nonsense suppression is not above 0.026.

Consider U55C A74C, for which the nonsense suppression was not above 0.026.

With U21G U22G G25A A62U C79U A89G, the nonsense suppression was not above 0.026.

As to U16G A62G C83G, the nonsense suppression is not above 0.026.

Turning to A24U G66A, the nonsense suppression was not above 0.026.

C5U C29U A60G G69U: the nonsense suppression was not above 0.026.

Consider C1A A30C, for which the nonsense suppression is not above 0.026.

C3U G6A G10C: the nonsense suppression is not above 0.026.

Consider A13U U71A, for which the nonsense suppression is not above 0.026.

Regarding G32U A89U, the nonsense suppression is not above 0.026.

C56A U57C: the nonsense suppression is not above 0.026.

On to C3A G6U A14G, for which the nonsense suppression was not above 0.026.

Regarding G15U U63G G67A U70C, the nonsense suppression was not above 0.026.

Take G66U C82G: the nonsense suppression is not above 0.026.

As for G6A U17A A24C, the nonsense suppression was not above 0.026.

With U21A U55G U58A A60G, the nonsense suppression is not above 0.026.

A24C G28A G66C: the nonsense suppression is not above 0.026.

In the case of C12A A24C, the nonsense suppression is 0.035.

Take G19A A31G G61U A89U: the nonsense suppression was not above 0.026.

Consider A62G G69A C79A, for which the nonsense suppression was not above 0.026.

For C11G G18U U58C G61C U76C, the nonsense suppression was not above 0.026.

In the case of A13U G85A, the nonsense suppression was 1.2.

With C27U C34G A60G G69C, the nonsense suppression was not above 0.026.

U63C U76C: the nonsense suppression was 0.693.

For A9U U16A, the nonsense suppression was 0.13.

For the variant U4A G10A C83U, the nonsense suppression was not above 0.026.

Turning to G6U U57A, the nonsense suppression is not above 0.026.

Consider U2C G66A A87U, for which the nonsense suppression was not above 0.026.

With U2G G66A U76G, the nonsense suppression was not above 0.026.

On to G26C U57G A60C, for which the nonsense suppression was not above 0.026.

Take C12A A14U U21G G84U: the nonsense suppression was not above 0.026.

With C5G G15A G67A, the nonsense suppression is not above 0.026.

As for U8A C11U U55A C68G, the nonsense suppression is not above 0.026.

Take A33G G65A: the nonsense suppression is not above 0.026.

For G6U U57G A60G G84U, the nonsense suppression was not above 0.026.

On to C5U A9U A31C C64U G65A, for which the nonsense suppression is not above 0.026.

As to A30C G67A, the nonsense suppression was not above 0.026.

C3A C11G G61C G65C A89C: the nonsense suppression was not above 0.026.

In the case of G6U U55C U70G C83A, the nonsense suppression is not above 0.026.

With G10U G19A A24G C83U, the nonsense suppression is not above 0.026.

C3G G86A: the nonsense suppression is not above 0.026.

In the case of C56U U58G G86A, the nonsense suppression was not above 0.026.

G15A U21G A23C C29U A30G C75G U76C: the nonsense suppression was not above 0.026.

As to A23C G84C, the nonsense suppression was not above 0.026.

Consider G65U G66U A87C, for which the nonsense suppression is not above 0.026.

As to A14G A31U, the nonsense suppression was not above 0.026.

As to U16A G28U G67C G85U, the nonsense suppression is not above 0.026.

As to C27A G88A, the nonsense suppression was not above 0.026.

With C1U G69C, the nonsense suppression was not above 0.026.

With U58G G65A, the nonsense suppression is not above 0.026.

For the variant C12U C27U U70C, the nonsense suppression is not above 0.026.

Consider C75U C83A, for which the nonsense suppression was not above 0.026.

For C5U G10A A13G G73A C75A G86C, the nonsense suppression was not above 0.026.

As to C1G A54U U76A, the nonsense suppression was not above 0.026.
